According to PubChem BioAssay AID463173 (ICCB-Longwood Screening Facility, Harvard Medical School, 2010):
Out of some 52,000 compounds screened, about 1,700 (3.3%) were called active. Cut-off read from the data, not from the text of the source: active = survival mostly below about 52% (no sharp cut-off); inactive = mostly above about 56%. This is one part of the list.

test system: Wild type; test: growth inhibition of S. aureus wild type versus tarO mutant, primary screen, teichoic acid synthesis inhibitors, RN4220, OD600 (AID 463173); conditions: S. aureus RN4220 wild type/DeltatarO growth, OD600, 18 h, hits give low values, screened at 18.75 µg/mL (by protocol)

Compound	survival
CSc1ccc(CCNC(=O)c2ccc(CS(=O)(=O)c3ccc(Br)cc3)o2)cc1	inactive: 79%
CC1CCc2c(sc(NC(=O)c3ccc(Cl)cc3Cl)c2C#N)C1 (configuration not stated)	inactive: 80%
CCOC(=O)N1CCc2c(sc(NCc3ccc(N(C)C)cc3)c2C(=O)Nc2ccc(OC)cc2)C1	inactive: 73%
Nc1nc(N)c2nccnc2n1	inactive: 105%
O=c1c2sc3ccccc3c2n(Cc2cccc(C(F)(F)F)c2)c(=O)n1Cc1ccccc1	inactive: 92%
COc1ccc(C(c2nnnn2C2CCCC2)N2CCN(C(=O)c3ccco3)CC2)cc1OC (configuration not stated)	inactive: 109%
COc1ccc(NC(=O)CSc2nc(-c3cccs3)cc(C(F)(F)F)c2C#N)cc1	inactive: 113%
Cc1c(Cl)cccc1N1C(N)=C(C#N)C(c2cc(CN3CCOCC3)cs2)C2=C1CCCC2=O (configuration not stated)	inactive: 160%
O=C1N(Cc2cccc(C(F)(F)F)c2)c2ccccc2S(=O)(=O)N1c1cccc(Cl)c1	inactive: 59%
COc1ccc(CNC(=O)c2cc3cc(S(=O)(=O)N4CCCCC4)ccc3n2C)c(OC)c1	inactive: 63%
O=c1[nH]c(O)c(C=NCc2ccc3c(c2)OCO3)c(=O)[nH]1	inactive: 111%
COc1ccc(NC(=O)CCc2c(C)nc3c(c2C)c(=O)n(C)c(=O)n3C)cc1OC	inactive: 70%
CCN(CC)C(=O)CSc1nc2cc3c(cc2c(=O)n1CCCCCC(=O)NCCc1ccc(OC)c(OC)c1)OCO3	inactive: 111%
Cc1cc(F)ccc1NC(=O)CN(C)S(=O)(=O)c1ccc(C(=O)N2CCOCC2)s1	inactive: 80%
CCc1ccc2[nH]c(=O)c(C(c3nnnn3C3CCCC3)N(Cc3ccccc3)Cc3ccco3)cc2c1 (configuration not stated)	inactive: 113%
N#Cc1c(C(F)(F)F)cc(-c2cccs2)nc1SCC(=O)Nc1ccc(F)cc1	inactive: 94%
COc1ccc(CNC(=O)c2ccc3c(c2)N(Cc2ccccc2F)C(=O)c2ccccc2S3(=O)=O)cc1	inactive: 84%
CCOc1ccc(NC(=O)c2c(NCc3sccc3C)sc3c2CCCCC3)cc1	inactive: 102%
Cc1ccc(C(=O)N2CC3(C)CC2CC(C)(C)C3)cc1 (configuration not stated)	inactive: 110%
COCCNC(=O)CCc1c(C)nc2c(c(C)nn2-c2ccc(C)cc2)c1C	inactive: 90%
CCCN(CCC)c1nc(-c2ccccc2F)nc2ccccc12	active: 1%
O=C(COc1ccc([N+](=O)[O-])cc1)Nc1cccc2cccnc12	inactive: 89%

Compound	survival
COc1ccc(OCc2ccc(-c3nc(C#N)c(N4CCN(c5cccc(Cl)c5)CC4)o3)o2)cc1	inactive: 93%
O=C(CSc1nc2c([nH]c3ccccc32)c(=O)n1-c1ccc(F)cc1)NC1CCCCC1	inactive: 77%
CCc1ccccc1NC(=O)CSC1=Nc2ccccc2C2=NC(Cc3ccccc3)C(=O)N12 (configuration not stated)	inactive: 71%
COc1cc(Cl)c(C)cc1NC(=O)Cn1ncc2c(=O)oc3ccccc3c21	inactive: 92%
COc1cc(NC(=O)C2CCCN(S(=O)(=O)c3ccc4c(c3)CCCC(=O)N4)C2)cc(OC)c1 (configuration not stated)	inactive: 71%
CCC(C(=O)OC)n1cnc2c(cnn2-c2ccc(F)cc2)c1=O (configuration not stated)	inactive: 84%
COc1ccc(-c2nc(SCC(=O)c3ccc(OC)c(Br)c3)n[nH]2)cc1	inactive: 116%
CCC(Sc1nc2nccnc2c(=O)n1Cc1ccc(F)cc1)C(=O)NC1CCCCC1 (configuration not stated)	inactive: 68%
CC1(C)CCCC2=C1CC1C(=O)N(O)C(=O)C1C2 (configuration not stated)	inactive: 108%
CSc1ncc(Cl)c(C(=O)Nc2ccc(S(=O)(=O)N3CCCC(C)C3)cc2)n1 (configuration not stated)	inactive: 90%
CCc1cccc(NC(=O)C2CCC(CNS(=O)(=O)c3csc(C(N)=O)c3)CC2)c1 (configuration not stated)	inactive: 69%
CCOc1cccc(C2c3[nH]c4ccccc4c3CCN2C(=O)CCC2CCCC2)c1 (configuration not stated)	inactive: 68%
O=C(CSc1ccccn1)c1ccc(Cl)cc1	inactive: 107%
CCc1ccc(CNC(=O)c2cnc3sc(N4CCCCC4)nn3c2=O)cc1	inactive: 95%
CCOc1ccc(S(=O)(=O)c2cn(Cc3ccccc3)c3ccc(OCC)cc3c2=O)cc1	inactive: 78%
Cc1cc(NC(=O)NCc2ccc3c(c2)CCN3C(=O)c2ccccc2)ccc1Br	inactive: 135%
CCc1ccc(S(=O)(=O)Nc2cccc(-c3ccc(N4CCC(C)CC4)nn3)c2)s1	inactive: 57%
CC(C)(C)OC(=O)N1CCC(c2c(C(=O)NCc3ccco3)cnn2-c2ccccc2)CC1	inactive: 75%
Cc1cc(=O)n2nc(N3CCC(C(=O)NCc4ccccc4)CC3)sc2n1	inactive: 102%
Cc1ccc(NC(=O)Cn2cnc3nc4c(cc3c2=O)CCCC4)cc1Cl	inactive: 83%
COc1ccc(C(=O)Nc2ccc(OCc3cc(=O)n4ccsc4n3)cc2)cc1OC	inactive: 92%
O=C(NCCn1cnc2cccnc21)Nc1ccccc1-c1ccccc1	inactive: 107%

Compound	survival
CCn1c(=O)cc(SCC(=O)NCc2ccccc2OC)c2ccccc21	inactive: 76%
COc1ccc2cc(C(=O)NCc3ccc4c(c3)CCN4C(=O)c3ccccc3)[nH]c2c1	active: -3%
O=C(Cn1cc(C(=O)c2ccco2)c2ccccc21)Nc1ccccc1Cl	inactive: 69%
O=C(NCc1cccnc1)C(=O)NCC(c1cccnc1)N1CCN(c2ccccc2F)CC1 (configuration not stated)	inactive: 108%
Cc1nn(-c2ccc(F)cc2)c(-n2cccc2)c1C(=O)NCCCN1CCN(c2cccc(Cl)c2)CC1	inactive: 110%
CCOC(=O)c1sc2ccccc2c1S(=O)(=O)N1CCN(c2cccc(C)c2C)CC1	inactive: 75%
CCOC(=O)c1sc2ccccc2c1S(=O)(=O)N1CCN(c2cccc(OC)c2)CC1	inactive: 55%
Cc1cc(C)c2c(=O)cc(C(=O)Nc3ccc(S(=O)(=O)N(C)Cc4ccccc4)cc3)oc2c1	inactive: 82%
O=C(C1CCN(S(=O)(=O)c2cccc3nonc23)CC1)N1CCN(c2ccccc2F)CC1	inactive: 67%
Cc1ccc(C(c2ccccc2)c2c(C)[nH]c3ccccc23)s1 (configuration not stated)	inactive: 86%
Cc1ccc2nc(-c3c[nH]c4ccccc34)c(Nc3ccccc3C)n2c1	inactive: 98%
Nc1nnc(SCC(=O)Nc2ccccc2)s1	inactive: 65%
COc1cccc(NC(=O)Cn2c(=O)n(CC(=O)NCc3ccc(C)cc3)c(=O)c3sccc32)c1	inactive: 88%
Cc1ccc(/C=C/C(=O)Nc2ccc(S(N)(=O)=O)cc2)o1	inactive: 72%
Cc1ccc(-c2cc(NC(=O)COc3ccc(Cl)c(C)c3)on2)cc1	inactive: 98%
CCN1CCN(C(=O)Cn2ncc3c4ccccc4n(Cc4ccccc4)c3c2=O)CC1	inactive: 86%
COCCNC(=O)c1nc2c(nnn2Cc2cc(C)ccc2C)c(=O)[nH]1	inactive: 113%
O=C(COc1ccc(Br)cc1)N/N=C1\SCC(=O)N1c1ccc(F)cc1	inactive: 116%
Cc1cc(C)c(Cn2c3ccccc3c3cnn(CC(=O)NCc4ccccn4)c(=O)c32)c(C)c1	inactive: 137%
COc1ccccc1CCNC(=O)C(=O)NCC(c1cccs1)S(=O)(=O)c1ccccc1 (configuration not stated)	inactive: 84%
CC(=NC1CC1)C1=C(O)c2ccccc2C1=O	inactive: 107%
CCOC(=O)c1cccc(NC(=O)c2cn(-c3cccc(OC)c3)c(=O)c3ccccc23)c1	inactive: 86%

Compound	survival
CCc1nc(SCC(=O)O)c(C#N)cc1C	inactive: 96%
O=C(CCS(=O)(=O)c1ccc(Br)cc1)Nc1ccc(Cl)c(C(F)(F)F)c1	inactive: 138%
Cc1cccc(Cn2c(=O)n(Cc3ccccc3)c(=O)c3oc4ccccc4c32)c1	inactive: 84%
Cc1ccccc1NC(=O)C1CCN(C(=O)c2cnn(-c3ccccc3)c2-n2cccc2)CC1	inactive: 73%
Cc1ccc(Sc2ccc(N3CCC(C(=O)Nc4ccc(C)c(F)c4)CC3)nn2)cc1	inactive: 62%
Fc1cc(F)c2ncc3c(-c4ccccc4)nn(-c4cccc(Cl)c4)c3c2c1	inactive: 111%
CC(C)OCCCNC(=O)C(=O)Nc1ccc2nc3n(c(=O)c2c1)CCCCC3	inactive: 99%
COc1ccc(-c2cc(C(F)(F)F)nc(-n3nc(C(F)(F)F)cc3C)n2)cc1	inactive: 50%
COc1cc(NC(=O)N(Cc2ccco2)C2CCN(C(C)=O)CC2)cc(OC)c1OC	inactive: 159%
Cc1cccc(-c2nc3nc(C)cc(NCc4ccccc4Cl)n3n2)c1	inactive: 83%
CCc1ccc(-n2c(N3CCN(c4cccc(Cl)c4)CC3)nc3ccccc3c2=O)cc1	inactive: 86%
Cc1ccc(NC(=O)N(Cc2cc3cc(C)cc(C)c3[nH]c2=O)CC2COCCO2)cc1 (configuration not stated)	inactive: 104%
CC1CCN(c2oc(-c3ccc(COc4ccccc4)o3)nc2C#N)CC1	inactive: 75%
O=C(NCC(c1cccs1)S(=O)(=O)c1cccs1)c1ccc(Cl)cc1 (configuration not stated)	inactive: 70%
c1ccc(CN2CCCN(c3nc4c(c(NCCN5CCOCC5)n3)CCCC4)CC2)cc1	inactive: 104%
Cc1ccc(-n2c(SCC(=O)NCc3ccccc3)nc3n[nH]c(C)c3c2=N)cc1Cl	active: -6%
Cc1ccc(-c2nc3nc(C)cc(C)n3c2Nc2ccc3c(c2)OCCO3)cc1	inactive: 129%
CC(=O)N1CCc2cc(Br)cc(S(=O)(=O)N3CCC(C)CC3)c21	inactive: 124%
CC(C)c1cnc2c(c1SCc1cccc(F)c1)c(=O)n(C)c(=O)n2C	inactive: 74%
CC(=O)c1ccc(NC(=O)c2nc(-c3ccccc3)n(-c3ccc(Cl)cc3)n2)cc1	inactive: 47%
CCOc1ccc(NC(=O)Cn2c(=O)n(Cc3nc(-c4ccccc4)no3)c(=O)c3cc4c(cc32)OCO4)cc1	inactive: 80%
